# In all, about 350,000 compounds went through this assay and about 9,900 (2.8%) were called active. The shares of active, inactive and inconclusive entries below differ from those in the screen. Calls follow the shape of the dose curve; as a rule, active = well fitted activation curve with a large enough effect; inconclusive = small, poorly fitted or top-dose-only effect; inactive = no such curve, though single readings can be large or run the other way. No potency is given beside an inconclusive call; the fits are too rough.
# Experiment: A quantitative high throughput screen for small molecules that induce DNA re-replication in MCF 10a normal breast cells. Also: nearly all actives have a fitted effect of over 50% in size.
# Details: MCF 10A DNA re-replication, Hoechst nuclear intensity, 48 h; series mostly up to 46.1 µM
# Potency is read from the fitted curve at half-maximal effect; tags tell the direction and shape of the fitted curve.
row,SMILES,Potency
1,Oc1ccc(-c2nc(-c3ccc(O)c(O)c3)cs2)cc1,"inconclusive [activator, full curve, poor fit]"
2,COc1ccccc1N1CCN(C(=O)CSc2nc(-c3ccco3)cc(C(F)(F)F)n2)CC1,"inconclusive [activator, single point]"
3,C[C@H](NC(=O)[C@@H]1CSC2c3ccccc3C(=O)N21)C(=O)NCc1c(F)cccc1Cl (some centres not stated),inactive
4,O=C(N/N=C/c1ccc([N+](=O)[O-])o1)c1cc(-c2ccncc2)nc2ccccc12,active: 5.01 µM
5,CCOc1ccccc1NC(=O)Cn1nnc(C(=O)NCc2ccc3c(c2)OCO3)c1N,active: 4.61 µM
6,Cc1cc(C)n2nc(SCC(=O)N(CCC#N)c3ccccc3F)nc2n1,inactive
7,CCOC(=O)c1c(C)[nH]c(C(=O)NNC(=O)c2ccccc2F)c1C,inactive
8,CCCC(=O)Nc1sc2c(c1C(=O)Nc1ccccn1)CCCC2,"inconclusive [activator, partial curve, poor fit]"
9,CCn1c(CCNC(=O)c2ccc(OC)cc2)nnc1SCC(=O)Nc1ccccc1F,"inconclusive [activator, single point]"
10,CCOc1ccccc1NC(=S)/C(=C(\[O-])c1ccc2c(c1)OCCO2)[n+]1ccc(CC)cc1,inactive
11,CC(C)(C)n1cnc2cc(NCc3ccc(Br)cc3)ccc21,"inconclusive [activator, single point]"
12,O=C(c1ccc(Cl)cc1)C(Cn1cncn1)C(Sc1ccccc1)c1ccccc1 (configuration not stated),"inconclusive [activator, single point]"
13,COc1ccc(-n2cnc3scc(-c4ccc(OC)c(OC)c4)c3c2=O)cc1,"inconclusive [activator, single point]"
14,CCOc1cc(/C=C/c2nc3ccccc3s2)ccc1OCC(=O)N1CCOCC1,"inconclusive [activator, single point]"
15,Cc1nn(-c2ccccc2)c(N2CCCC2)c1/C=N/NC(=O)c1cc(-c2ccccn2)nc2ccccc12,inactive
16,O=C(NCc1ccco1)c1ccccc1NS(=O)(=O)c1ccc(Br)s1,"inconclusive [activator, partial curve, poor fit]"
17,Cc1cccc(N(CC(=O)NCCSCc2ccco2)S(=O)(=O)c2ccccc2)c1,"inconclusive [activator, partial curve, poor fit]"
18,Cc1ccc(NC(=S)N(CCN2CCCCC2)Cc2ccco2)cc1Cl,"inconclusive [activator, partial curve, poor fit]"
19,CCOC(=O)c1ccc(N2C(=O)c3n[nH]c(C)c3C2c2ccc(OC)cc2OC)cc1 (configuration not stated),"inconclusive [activator, single point]"
20,Cc1cccc(N/N=C(\C(N)=O)C2=NC(C)(C)Cc3ccccc32)c1,active: 11.6 µM
21,CCOC(=O)C1=C(N)Oc2cc(O)ccc2C1c1ccc([N+](=O)[O-])cc1 (configuration not stated),"inconclusive [activator, single point]"
22,COc1cccc(OC)c1C(=O)Nc1cccc(-n2cnnn2)c1,inactive
23,CCN(C[C@H]1N[C@@](CC)(C(=O)OC)[C@H]2C(=O)N(Cc3ccccc3)C(=O)[C@@H]12)C(=O)Nc1ccc(C)cc1,inactive

row,SMILES,Potency
1,Cc1nnc(N2CCCC(C(=O)NCc3ccc(OC(C)C)cc3)C2)c2nn(-c3ccccc3)c(C)c12 (configuration not stated),"inconclusive [activator, single point]"
2,CCCCOc1ccc(/C=C/C(=O)NC2=Nc3ccccc3NC(C)=C2C(=O)OCC)cc1OC,"inconclusive [activator, single point]"
3,O=c1oc2ccccc2c(O)c1Sc1ccc(Cl)cc1,"inconclusive [activator, partial curve, poor fit]"
4,CC(C)(C)C(=O)CSc1ccc(S(=O)(=O)N2CCCC2)cn1,"inconclusive [activator, single point]"
5,CC(C)(C)NS(=O)(=O)c1ccc(C(=O)Nc2ccc3c(c2)OCO3)cc1,"inconclusive [activator, single point]"
6,Cc1ccc(NC(=O)C(NC2CCCc3ccccc32)c2ccccc2)c([N+](=O)[O-])c1 (configuration not stated),"inconclusive [activator, full curve, poor fit]"
7,O=C(O)CC(SCC(=O)Nc1ccc(Br)cc1)C(=O)O (configuration not stated),"inconclusive [activator, single point]"
8,COc1cccc(N=CC2=C(O)CC(C)(C)CC2=O)c1,"inconclusive [activator, single point]"
9,Cc1cc(NC(=O)C2CCN(S(=O)(=O)c3cnc[nH]3)CC2)ccc1Br,inactive
10,Cc1cc(C)cc(N2C(=O)CC(N3CCOCC3)C2=O)c1 (configuration not stated),active: 18.4 µM
11,Cc1csc2c(N3CCN(C(=O)Nc4ccccc4)CC3)ncnc12,inactive
12,O=S(=O)(Nc1ccccn1)c1ccc(Cl)c2ccccc12,inactive
13,O=c1[nH]nc(-c2ccc(OCc3ccc(Cl)cc3Cl)cc2)o1,"inconclusive [activator, partial curve, poor fit]"
14,COc1ccc(-c2ccc3c(c2)O/C(=C\c2ccsc2)C3=O)cn1,"inconclusive [activator, full curve, poor fit]"
15,O=C(CCN1CCN(c2ccccc2)CC1)N/N=C/c1ccc([N+](=O)[O-])o1,"inconclusive [activator, single point]"
16,Cc1ccc(S(=O)(=O)N(CC(=O)NCc2ccco2)c2ccccc2C)cc1,"inconclusive [activator, single point]"
17,c1ccc(Cn2c(CSc3nnnn3-c3ccccc3)nc3ccccc32)cc1,"inconclusive [activator, single point]"
18,CCCn1c(CC)nc([N+](=O)[O-])c1Sc1ccc(F)cc1,"inconclusive [activator, single point]"
19,CC(C)Oc1ccc(OCCNC2CCCC2)cc1,"inconclusive [activator, partial curve]"
20,CCCCCCCc1n[nH]c(=S)n1Cc1ccccc1,"inconclusive [activator, single point]"
21,O=C1C(Cc2ccc(Br)cc2)SC(=Nc2ccccc2)N1c1ccccc1 (configuration not stated),"inconclusive [activator, partial curve, poor fit]"
22,Cc1ccc(N(CC(=O)Nc2ccc(C)cc2C)S(=O)(=O)N2CCCC2)cc1,"inconclusive [activator, partial curve, poor fit]"
23,CCN(CC)S(=O)(=O)c1ccc(C)c(NC(=O)CNCc2ccccc2OC)c1,"inconclusive [activator, partial curve, poor fit]"

row,SMILES,Potency
1,COC(=O)Cc1nc(Nc2ccccc2)sc1C,"inconclusive [activator, single point]"
2,C#CC(=O)CCC1CCCN1C(=O)OC(C)(C)C (configuration not stated),"inconclusive [activator, single point]"
3,O=C1OCC/C1=C\c1ccc2c(c1)OCO2,inactive
4,O=[N+]([O-])c1ccc(Nc2ccc(F)cc2)nc1,inactive
5,C#Cc1cccc(Nc2ncnc3cc(OCCOC)c(OCCOC)cc23)c1,"inconclusive [activator, full curve, poor fit]"
6,Cc1cc(Cl)ccc1OCC(=O)Nc1ccccc1NS(=O)(=O)c1cccs1,"inconclusive [activator, partial curve, poor fit]"
7,COC(=O)c1nnn(-c2nonc2N)c1CSc1ccc(Cl)cc1,"inconclusive [activator, partial curve, poor fit]"
8,CC(C)CN(C(=O)CCNC(=O)c1ccc(Cl)cc1)C1CCS(=O)(=O)C1 (configuration not stated),inactive
9,COc1nccnc1NS(=O)(=O)c1ccc(NC(=S)NC(=O)c2ccccc2F)cc1,inactive
10,CC(/C=C/c1ccco1)=N/NC(=O)Cc1cccs1,"inconclusive [activator, single point]"
11,CC(CNC(=O)CN1C(=O)COc2ccc(S(=O)(=O)N3CCCCC3)cc21)c1ccccc1 (configuration not stated),inactive
12,CC(C)c1cc(N2CCN(C(=O)c3ccco3)CC2)n2c(nc3ccccc32)c1C#N,active: 23.1 µM
13,CN1C2=NCCN2C(=O)c2ccccc21,"inconclusive [activator, partial curve, poor fit]"
14,O=C(Nc1ccc2c(c1)OCO2)C1CCN(Cc2cc3c(cc2O)OCO3)CC1,"inconclusive [activator, partial curve, poor fit]"
15,COc1ccc(-n2c(C)cc(C(=O)Cn3nnc4ccccc4c3=O)c2C)cc1,inactive
16,O=C(/C=C/c1ccc(-c2ccccc2[N+](=O)[O-])o1)c1ccc(Br)cc1,"inconclusive [activator, partial curve, poor fit]"
17,CCOC(=O)c1c(C)[nH]c(N=Nc2ccc(C)cc2C)c1C,"inconclusive [activator, single point]"
18,COc1cc2c(C(=O)N3CCN(c4ccccc4)CC3)c(C)oc2cc1Br,"inconclusive [activator, single point]"
19,O=C(Nc1cccc(C(F)(F)F)c1)N(Cc1ccc(Cl)cc1)CC(O)C(F)(F)F (configuration not stated),"inconclusive [activator, partial curve, poor fit]"
20,Brc1ccc(-c2nnc3sc(CN4CCc5ccccc5C4)cn23)cc1,inactive
21,CCCCSc1nc2sc3c(c2c(=O)n1-c1ccccc1)CCN(C)C3,"inconclusive [activator, single point]"

# From PubChem BioAssay AID624296 (National Center for Advancing Translational Sciences (NCATS), 2012)
